Some of the results follow.

The test system of this assay is S. aureus RN4220. Nature of the assay: growth inhibition call (relative growth <= 0.2). The conditions noted are these: 50 µM.
In the case of `Cc1noc(C)c1NC(=O)Nc1ccc2c(c1)C(=O)N([C@H](C)CO)C[C@@H](C)[C@@H](CN(C)C(=O)Nc1cccc3ccccc13)O2`, the growth inhibition call is “inactive”.

Regarding `C[C@@H]1CN([C@H](C)CO)C(=O)Cc2cc(NS(=O)(=O)c3cccs3)ccc2O[C@H]1CN(C)S(=O)(=O)c1cccs1`, the growth inhibition call is “inactive”.

On to `Cc1cn[nH]c1.Cl`, for which the growth inhibition call is “inactive”.

As to `COc1ccc(C#Cc2cnc3c(c2)C(=O)N([C@H](C)CO)C[C@H](C)[C@H](CN(C)S(=O)(=O)c2ccc(F)cc2)O3)cc1OC`, the growth inhibition call is “inactive”.

On to `Cc1cc(C(=O)Nc2cccc3c2O[C@H](CN(C)S(=O)(=O)c2c(C)noc2C)[C@H](C)CN([C@H](C)CO)C3=O)n(C)n1`, for which the growth inhibition call was “inactive”.

As to `C[C@@H]1CCCCO[C@@H](CN(C)C(=O)NC2CCCCC2)[C@@H](C)CN([C@H](C)CO)C(=O)c2cc(NC(=O)Cc3ccccc3)ccc2O1`, the growth inhibition call is “inactive”.

For `CC[n+]1oc(-c2ccccc2)cc1C`, the growth inhibition call is “inactive”.

With `COc1ccccc1-c1ccc2c(c1)O[C@H](CN(C)C(=O)c1cccnc1)[C@@H](C)CN([C@H](C)CO)S2(=O)=O`, the growth inhibition call is “inactive”.

For the compound `Cc1ccc(S(=O)(=O)Nc2cccc3c2O[C@H](CN(C)S(C)(=O)=O)[C@H](C)CN([C@H](C)CO)C3=O)cc1`, the growth inhibition call was “inactive”.

Take `CC(=N)NCCCC[C@H](N)C(=O)O`: the growth inhibition call is “inactive”.

`O=C(/C=C/c1ccc(O)c(O)c1)O[C@]1(C(=O)O)C[C@@H](O)[C@H](O)[C@H](O)C1`: the growth inhibition call is “inactive”.

For the compound `Cc1noc(C)c1NC(=O)Nc1ccc2c(c1)CC(=O)N([C@@H](C)CO)C[C@H](C)[C@H](CN(C)Cc1ccc(Cl)c(Cl)c1)O2`, the growth inhibition call is “inactive”.

Consider `C[C@@H]1CCCCO[C@H](CN(C)Cc2ccc(C(F)(F)F)cc2)[C@@H](C)CN([C@H](C)CO)C(=O)c2cc(NC(=O)CCCN(C)C)ccc2O1`, for which the growth inhibition call was “inactive”.

Take `C[C@H]1CN([C@@H](C)CO)C(=O)c2cc(NC(=O)c3ccncc3)ccc2O[C@@H]1CN(C)S(=O)(=O)c1ccccc1`: the growth inhibition call is “inactive”.

Take `Cn1cc(C(=O)N2CCN(CC(N)=O)CC2)c2nn(-c3ccccc3)c(=O)c-2c1`: the growth inhibition call is “inactive”.

As for `C[C@@H]1CCCCO[C@@H](CN(C)C)[C@@H](C)CN([C@@H](C)CO)C(=O)c2cc(NS(=O)(=O)c3cn(C)cn3)ccc2O1`, the growth inhibition call is “inactive”.

Turning to `COc1ncnc2nc[nH]c12`, the growth inhibition call is “inactive”.

As for `Cc1noc(C)c1S(=O)(=O)N(C)C[C@@H]1OCCCC[C@@H](C)Oc2ccc(NC(=O)Nc3cccc4ccccc34)cc2C(=O)N([C@@H](C)CO)C[C@H]1C`, the growth inhibition call was “inactive”.

For the compound `C[C@H](CO)N1C[C@H](C)[C@@H](CN(C)Cc2ccc(Oc3ccccc3)cc2)Oc2ccc(NS(=O)(=O)c3ccccc3)cc2CC1=O`, the growth inhibition call was “inactive”.

Regarding `COc1ccc(S(=O)(=O)Nc2ccc3c(c2)C(=O)N([C@H](C)CO)C[C@@H](C)[C@@H](CN(C)Cc2ccc(Cl)c(Cl)c2)OCCCC[C@H](C)O3)cc1`, the growth inhibition call is “inactive”.

Turning to `CNC(=O)C[C@H]1CC[C@@H]2[C@H](COC[C@H](O)CN2C(=O)c2ccccn2)O1`, the growth inhibition call is “inactive”.

For the compound `COCC(=O)Nc1ccc2c(c1)C(=O)N(C)C[C@H](OC)[C@H](C)CN(Cc1cccc(F)c1)[C@@H](C)CO2`, the growth inhibition call was “inactive”.

With `CC(=O)N[C@@H](CCC(=O)O)C(=O)O`, the growth inhibition call was “inactive”.

With `Cc1ccc(-c2ccc3c(c2)O[C@@H](CN(C)C(=O)Nc2ccc(C(F)(F)F)cc2)[C@H](C)CN([C@H](C)CO)S3(=O)=O)cc1`, the growth inhibition call is “inactive”.

For the compound `COc1ccc(C#Cc2cnc3c(c2)C(=O)N([C@H](C)CO)C[C@@H](C)[C@@H](CN(C)CC2CCOCC2)O3)cc1`, the growth inhibition call was “inactive”.

`Cc1noc(C)c1S(=O)(=O)N(C)C[C@H]1Oc2ccc(NS(C)(=O)=O)cc2CC(=O)N([C@H](C)CO)C[C@@H]1C`: the growth inhibition call is “inactive”.

Consider `CC(C)CC#Cc1ccc2c(c1)O[C@@H](CN(C)C(=O)Cc1cccnc1)[C@H](C)CN([C@H](C)CO)S2(=O)=O`, for which the growth inhibition call is “inactive”.

Take `C[C@@H]1CCCCO[C@H](CN(C)S(=O)(=O)c2ccc(Cl)cc2)[C@H](C)CN([C@@H](C)CO)C(=O)c2cc(NS(=O)(=O)c3cccs3)ccc2O1`: the growth inhibition call is “inactive”.

On to `COc1cc2c(cc1OC)CN(C(=O)[C@H]1[C@@H]3C(=O)O[C@@H](c4ccccc4)[C@@H](c4ccccc4)N3[C@@H](c3ccc(OCCO)cc3)[C@]13C(=O)Nc1ccc(C#CCCO)cc13)CC2`, for which the growth inhibition call was “inactive”.

Values taken from the antibiotic and cytotoxicity screens of Wong et al. (2023).
